# Source: PubChem BioAssay AID624296 (National Center for Advancing Translational Sciences (NCATS), 2012)
# In all, about 350,000 compounds went through this assay and about 9,900 (2.8%) were called active. The shares of active, inactive and inconclusive entries below differ from those in the screen. Calls come from the whole dose curve; as a rule, active = well fitted activation curve with a large enough effect; inconclusive = small, poorly fitted or top-dose-only effect; inactive = no such curve, though single readings can be large or run the other way. No potency is given beside an inconclusive call; the fits are too rough.
# Assay: A quantitative high throughput screen for small molecules that induce DNA re-replication in MCF 10a normal breast cells. Note: nearly all actives have a fitted effect of over 50% in size.
# Settings: MCF 10A DNA re-replication, Hoechst nuclear intensity, 48 h; series mostly up to 46.1 µM
# Potency is the fitted concentration of half-maximal effect; tags give direction and shape of the fitted curve.
row,Compound,Potency
1,CC(CNCC1CCCO1)COc1ccccc1 (stereo unspecified),"inconclusive [activator, single point]"
2,CN(C)c1cccc(-c2csc(N3CCC(C(N)=O)CC3)n2)c1,"inconclusive [activator, single point]"
3,O=C(c1ccccc1-c1nc(-c2ccc(Cl)cc2)no1)N1CCCC1,"inconclusive [activator, single point]"
4,O=C(O)c1cccc(N2C(=O)c3ccc(Oc4ccc(Cl)cc4)cc3C2=O)c1,"inconclusive [activator, single point]"
5,CCCOc1ccc(N2C(=O)CC(N3CCC(C(=O)OCC)CC3)C2=O)cc1 (stereo unspecified),active: 14.6 µM
6,O=C(NC12CC3CC(CC(C3)C1)C2)c1ccc([N+](=O)[O-])o1,active: 8.2 µM
7,O=C1Nc2ccccc2/C1=N\N=C\c1ccc(O)c(O)c1,inactive
8,CN(CC(=O)Nc1ccc(F)cc1)C(=O)c1cccc(NS(=O)(=O)c2ccccc2)c1,inactive
9,CCOC(=O)c1cc2c(=O)n3ccccc3nc2n(C(C)C)c1=NC(=O)c1c(-c2c(F)cccc2Cl)noc1C,"inconclusive [activator, single point]"
10,O=C(NC1CCCCCCC1)c1ccccc1O,inactive
11,CC1Cc2ccccc2N1CC(=O)NC(c1ccccc1)c1ccccc1 (stereo unspecified),"inconclusive [activator, partial curve, poor fit]"
12,O=C(NCCSc1ccc(Cl)cc1)c1ccco1,inactive
13,Cc1c(CN2CCCC(C(=O)Nc3cccc(-n4cccn4)c3)C2)cnn1C (stereo unspecified),"inconclusive [activator, single point]"
14,CCC1CCCCN1S(=O)(=O)c1ccc(C(=O)Nc2nnc(-c3cccs3)o2)cc1 (stereo unspecified),"inconclusive [activator, full curve, poor fit]"
15,C1CCN=C(NC23CC4CC(CC(C4)C2)C3)CC1,"inconclusive [activator, partial curve, poor fit]"
16,Cc1cc(NC(=O)C(C)SCC(=O)N(C)Cc2c(F)cccc2Cl)no1 (stereo unspecified),inactive
17,Cc1ccc(C(C)(C)C)cc1S(=O)(=O)Nc1cccc(C(=O)N2CCN(c3ccccn3)CC2)c1,"inconclusive [activator, single point]"
18,O=C(NNc1nc(=O)c2cccnc2s1)c1ccccc1O,inactive
19,COc1cc(C=O)ccc1OC(=O)Nc1ccccc1,inactive
20,CC(=O)Nc1ccc(NC(=O)CCN2C(=O)c3ccccc3C2=O)cc1,active: 0.58 µM
21,Oc1cc2c(cc1O)[C@@H](c1ccccc1)CNCC2,active: 18.4 µM
